The source of these data is the supplement of paper PMC3334620.

Over roughly 33,000 sequences, “E-score (-0.5 to 0.5)” has its median near -0.013; the highest 2% begin near 0.3. The list shows a part of the results.

The experiment addresses T1, Msn1 (UniProt P22148).
T1 sequence: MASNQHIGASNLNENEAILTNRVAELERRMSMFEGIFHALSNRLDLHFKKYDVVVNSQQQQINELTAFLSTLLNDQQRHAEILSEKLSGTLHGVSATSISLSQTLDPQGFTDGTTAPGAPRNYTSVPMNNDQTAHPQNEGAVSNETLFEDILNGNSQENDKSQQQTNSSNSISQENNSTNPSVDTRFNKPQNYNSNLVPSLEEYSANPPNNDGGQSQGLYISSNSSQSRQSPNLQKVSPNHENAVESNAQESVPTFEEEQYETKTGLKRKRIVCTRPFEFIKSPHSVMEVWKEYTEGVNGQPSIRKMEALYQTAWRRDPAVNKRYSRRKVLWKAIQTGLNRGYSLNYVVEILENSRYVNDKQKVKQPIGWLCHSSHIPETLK
Kind of experiment: PBM E-score (8-mer binding enrichment) (E-score (-0.5 to 0.5)); higher = stronger / more preferred TF binding; most listed sequences are background and not binding sites. The note with it: protein concentration: 200 nM; construct: GST-full length. The method, boiled down:
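Masliner-normalised scans of fluorescent anti-GST signal were the basis for scoring. That signal came from GST-tagged yeast transcription factors applied at about 100-200 nM to double-stranded universal all-10-mer Agilent arrays on fresh or once-stripped slides. Each ungapped eight-base word, pooled with its reverse complement, received an E-score from the Universal PBM Analysis Suite.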
As for AATATGTG, the “PBM E-score” value came to 0.181.
In the case of CACAGTCA, the “PBM E-score” value is -0.0378.
With ACGTACCC, the “PBM E-score” value was -0.0327.
The same measure for CATTTACC: 0.201; for AGCATGAG: -0.0774.
Take CGTTTCAG: the “PBM E-score” value was 0.176.
For the sequence ACCGCGGT, the “PBM E-score” value came out at 0.107.
Regarding AGGTAGAT, the “PBM E-score” value is -0.0882.
The value for CCCTTCCG was -0.277.
On to ATATATCC, for which the “PBM E-score” value was 0.195.
Turning to CATTAGGA, the “PBM E-score” value was 0.064.
In the case of TATTAAAA, the “PBM E-score” value worked out at 0.236.
The value for GAAGACTC was 0.048.
Consider GGTCGTAC, for which the “PBM E-score” value is -0.126.
For the sequence GGGTGGAA, the “PBM E-score” value was -0.224.
On to GTGCTGAA, for which the “PBM E-score” value is -0.191.
ACCGACGA: the “PBM E-score” value is 0.0949.
The value for GTCCCGAC was 0.191.
In the case of TACCAGTA, the “PBM E-score” value came to 0.116.
Consider ATATCGGC, for which the “PBM E-score” value was found to be 0.149.
In the case of CTATCCTC, the “PBM E-score” value was -0.167.
Turning to GGAAGTAC, the “PBM E-score” value was -0.136.
Regarding CATGGGCC, the “PBM E-score” value was -0.163.
GACGTCGC: the “PBM E-score” value is -0.165.
The value for CCCAACTC was -0.0737; that for CAAGGTTC was -0.0921; that for GACAAGAA was 0.374.
Take AAAACCTT: the “PBM E-score” value is -0.197.
On to CCGAGATC, for which the “PBM E-score” value was 0.0634.
As for CAGAACCA, the “PBM E-score” value was -0.0963.
For AAAAGATG, the “PBM E-score” value was determined as 0.0869.
GATCGTAA: the “PBM E-score” value stood at 0.114.
On to ACGCATTG, for which the “PBM E-score” value is -0.0899.
Regarding ATTAGAAT, the “PBM E-score” value worked out at 0.0939.
In the case of AACGCGAT, the “PBM E-score” value is -0.0845.
The value for CTGCAAAA was 0.0838; that for CGCCAGAG was -0.148; that for ATTACAGC was -0.151.
Consider AAACGAGG, for which the “PBM E-score” value is -0.0812.
Turning to ACCGCTAG, the “PBM E-score” value was -0.0798.
The same measure for AACTTGTC: 0.391.
For the sequence CAGTAGCG, the “PBM E-score” value was -0.0401.
On to TAACTCGA, for which the “PBM E-score” value is 0.16.
On to CTAGGTAA, for which the “PBM E-score” value is -0.141.
In the case of ACACGTGA, the “PBM E-score” value was found to be 0.108.
In the case of TATATTAA, the “PBM E-score” value worked out at 0.232.
The value for ACTGCGAC was 0.0372; that for CACCTGCC was -0.202; that for ACAGAATC was 0.0712.
Take AGATGTAT: the “PBM E-score” value is -0.0433.
On to ACCTGGTG, for which the “PBM E-score” value was -0.32.
Take AAAGGAGT: the “PBM E-score” value is -0.084.
Take GACTGAAC: the “PBM E-score” value was -0.0291.
Turning to CGTCAGGA, the “PBM E-score” value was -0.0453.
The same measure for GATGTACA: 0.2; for AATCGCGG: -0.0441.
With GGTCCAAC, the “PBM E-score” value was -0.0461.
The same measure for ATCGAGGC: -0.0295; for AATGGATA: -0.0648.
Consider AACTTTCG, for which the “PBM E-score” value was -0.0271.
In the case of ACGCCCGC, the “PBM E-score” value is -0.0536.
In the case of GATGACAC, the “PBM E-score” value came out at 0.06.
As for CAACGATG, the “PBM E-score” value is -0.0474.
The same measure for GTGGGCCA: -0.0613.
On to CATCGTCA, for which the “PBM E-score” value came to 0.0515.
For the sequence GTTCAGCA, the “PBM E-score” value is -0.0288.
On to AGGAAAAG, for which the “PBM E-score” value is 0.0156.
For the sequence CCCTCTGA, the “PBM E-score” value is -0.174.
GTCTGTCA: the “PBM E-score” value is 0.181.
As for CTCTAGAG, the “PBM E-score” value was -0.256.
The same measure for ACTGTTAA: 0.0626; for CCCTTTAC: -0.168; for AAAAAGTA: 0.173.
With AACAGTAA, the “PBM E-score” value amounted to 0.013.
The same measure for AATCTGCG: 0.0799.
As for ACTAGAGT, the “PBM E-score” value is -0.0625.
On to ACAGCTCT, for which the “PBM E-score” value is -0.242.
As for TGTTGCAA, the “PBM E-score” value was found to be 0.0681.
For ATAGAGAG, the “PBM E-score” value was -0.195.
TATGAGCA: the “PBM E-score” value is -0.218.
Turning to GGGGACCA, the “PBM E-score” value was -0.223.
As for AGTGTTCC, the “PBM E-score” value is 0.0105.
Consider CCATGCAC, for which the “PBM E-score” value was -0.0223.
The value for CACCGAGC was 0.00319; that for GGTATACC was 0.017.
For the sequence ACTTTTCC, the “PBM E-score” value turned out to be 0.206.
With AGCATGTA, the “PBM E-score” value was determined as 0.0635.
Take GCTGAGAA: the “PBM E-score” value is -0.176.
The value for CGTTATTC was 0.0268; that for GAATTCGA was -0.0695; that for CTTATGAC was 0.233.
For AATCCTGT, the “PBM E-score” value is 0.243.
CGATTATA: the “PBM E-score” value amounted to 0.229.
AGCGGTGG: the “PBM E-score” value was -0.209.
Regarding CAAGCTCA, the “PBM E-score” value amounted to 0.0331.
Turning to AAGTCCTC, the “PBM E-score” value amounted to 0.244.
In the case of CTCTCTTA, the “PBM E-score” value is -0.122.
With CGAAGTTA, the “PBM E-score” value was found to be 0.0705.
For the sequence AAAGCGGC, the “PBM E-score” value came to 0.00446.
On to AGACGTGG, for which the “PBM E-score” value is -0.0359.
Take ACTTTAAA: the “PBM E-score” value is 0.174.
AGTGCTCA: the “PBM E-score” value is -0.229.
Consider GTGTTCAA, for which the “PBM E-score” value is -0.0481.
The same measure for GAGCCAGC: -0.109; for ACCGAGGT: -0.122.
The value for CGAATAAC was 0.0021; that for CCCCCGAC was -0.0991.
CCTCACCG: the “PBM E-score” value was -0.281.
Regarding CCCGGCAG, the “PBM E-score” value was -0.175.
In the case of CAAGGATC, the “PBM E-score” value is 0.0888.
